Assay results from a collection of fitness landscapes (doi:10.1126/science.1257360).
This is one part of the list.

B1: PhoQ; a variant is named by its letters at X, in order, P23837 (parent)
chain: MKKLLRLFFPLSLRVRFLLATAAVVLVLSLAYGMVALIGYSVSFDKTTFRLLRGESNLFYTLAKWENNKLHVELPENIDKQSPTMTLIYDENGQLLWAQRDVPWLMKMIQPDWLKSNGFHEIEADVNDTSLLLSGDHSIQQQLQEVREDDDDAEMTHSVAVNVYPATSRMPKLTIVVVDTIPVELKSSYMVWSWFIYVLSANLLLVIPLLWVAAWWSLRPIEALAKEVRELEEHNRELLNPATTRELTSLVRNLNRLLKSERERYDKYRTTLTDLTHSLKTPLXXLQXXLRSLRSEKMSVSDAEPVMLEQISRISQQIGYYLHRASMRGGTLLSRELHPVAPLLDNLTSALNKVYQRKGVNISLDISPEISFVGEQNDFVEVMGNVLDNACKYCLEFVEISARQTDEHLYIVVEDDGPGIPLSKREVIFDRGQRVDTLRPGQGVGLAVAREITEQYEGKIVAGESMLGGARMEVIFGRQHSAPKDE

Variants of: B1
Experiment: enrichment ratio after two sorts for PhoP signalling (ratio (wild type AVST 3.29)); higher = more functional
Conditions: with PhoP (E. coli)

Row | Variant | enrichment ratio
1 | RDFF | ≤ 0.25
2 | FCCN | ≤ 0.25
3 | HWRG | ≤ 0.25
4 | IHWA | ≤ 0.25
5 | KSLC | ≤ 0.25
6 | WSPC | ≤ 0.25
7 | IMNP | ≤ 0.25
8 | VKDI | ≤ 0.25
9 | YSSK | ≤ 0.25
10 | STHY | ≤ 0.25
11 | FDEW | ≤ 0.25
12 | NREW | ≤ 0.25
13 | EVDC | ≤ 0.25
14 | SPYK | ≤ 0.25
15 | RAYR | ≤ 0.25
16 | VYRC | ≤ 0.25
17 | HFMY | ≤ 0.25
18 | GCWA | ≤ 0.25
19 | AARV | ≤ 0.25
20 | VDMP | ≤ 0.25
21 | KEPR | ≤ 0.25
22 | EYKY | ≤ 0.25
23 | AFDR | ≤ 0.25
24 | FVIC | ≤ 0.25

Row | Variant | enrichment ratio
25 | QEYY | 17.4
26 | AVAK | 9.48
27 | HRDV | ≤ 0.25
28 | TFQN | 1.88
29 | MICK | ≤ 0.25
30 | DFRE | ≤ 0.25
31 | QAYT | ≤ 0.25
32 | IDRW | ≤ 0.25
33 | KHVL | ≤ 0.25
34 | VTMV | 2.37
35 | LNQM | ≤ 0.25
36 | TSHN | 0.659
37 | FYHP | ≤ 0.25
38 | HLST | ≤ 0.25
39 | YQVR | ≤ 0.25
40 | TDDS | ≤ 0.25
41 | GGYP | ≤ 0.25
42 | LFIL | ≤ 0.25
43 | QRSG | ≤ 0.25
44 | MAIH | ≤ 0.25
45 | LGSQ | ≤ 0.25
46 | NTCA | ≤ 0.25
47 | MCYF | 3.56
48 | ATGI | 13.1

Row | Variant | enrichment ratio
49 | MTMI | 1.88
50 | SRWW | ≤ 0.25
51 | YQMP | ≤ 0.25
52 | EYME | ≤ 0.25
53 | AKRM | ≤ 0.25
54 | LAYC | ≤ 0.25
55 | IRMM | ≤ 0.25
56 | TCYV | 9.55
57 | FSQQ | ≤ 0.25
58 | LANM | ≤ 0.25
59 | VKDA | ≤ 0.25
60 | TNQN | 16.8
61 | ELSD | ≤ 0.25
62 | YCIC | ≤ 0.25
63 | DCQG | ≤ 0.25
64 | LCPH | ≤ 0.25
65 | QMHY | ≤ 0.25
66 | MAST | ≤ 0.25
67 | RIDN | ≤ 0.25
68 | QWFV | ≤ 0.25
69 | VDIN | ≤ 0.25
70 | FVYA | ≤ 0.25
71 | RMVS | ≤ 0.25
72 | TTFY | 1.18

Row | Variant | enrichment ratio
73 | VWFG | ≤ 0.25
74 | WEHS | ≤ 0.25
75 | ESAP | ≤ 0.25
76 | AMWD | ≤ 0.25
77 | TINQ | 3.05
78 | AYLE | ≤ 0.25
79 | QHGG | ≤ 0.25
80 | QIVV | ≤ 0.25
81 | VLWD | ≤ 0.25
82 | ILLP | ≤ 0.25
83 | MPTV | ≤ 0.25
84 | QKRA | ≤ 0.25
85 | ECVD | ≤ 0.25
86 | EIEI | ≤ 0.25
87 | WVCC | ≤ 0.25
88 | VLPE | ≤ 0.25
89 | IHVM | ≤ 0.25
90 | LQQL | ≤ 0.25
91 | HQDP | ≤ 0.25
92 | VECN | ≤ 0.25
93 | SFEQ | ≤ 0.25
94 | QGML | 6.23
95 | TEMR | 12.2
96 | GWVQ | ≤ 0.25

Row | Variant | enrichment ratio
97 | EMLC | ≤ 0.25
98 | IHAL | ≤ 0.25
99 | IFIA | ≤ 0.25
100 | WQVQ | ≤ 0.25
101 | LALE | ≤ 0.25
102 | MHAI | ≤ 0.25
103 | QHIN | ≤ 0.25
104 | PWYR | ≤ 0.25
105 | SNNM | 13.1
106 | MADC | ≤ 0.25
107 | QYVT | ≤ 0.25
108 | KYWP | ≤ 0.25
109 | YILG | 3.1
110 | SMCP | 0.358
111 | TAND | 6.24
112 | TKGI | 2.06
113 | PYRA | ≤ 0.25
114 | DFGS | ≤ 0.25
115 | MGPA | ≤ 0.25
116 | RACP | ≤ 0.25
117 | MISE | ≤ 0.25
118 | IDIG | ≤ 0.25
119 | HKFV | ≤ 0.25
120 | QDGV | ≤ 0.25

Row | Variant | enrichment ratio
121 | SKWV | ≤ 0.25
122 | EIAN | ≤ 0.25
123 | MYTE | ≤ 0.25
124 | DQAR | ≤ 0.25
125 | GLFW | ≤ 0.25
126 | FRTH | ≤ 0.25
127 | RYWF | ≤ 0.25
128 | GRVL | ≤ 0.25
129 | SQCH | 10.5
130 | HNQI | ≤ 0.25
131 | FIWM | ≤ 0.25
132 | SSMQ | 11.5
133 | FRTY | ≤ 0.25
134 | GRQF | ≤ 0.25
135 | LPWQ | ≤ 0.25
136 | TQEL | ≤ 0.25
137 | PMSV | ≤ 0.25
138 | IGQY | ≤ 0.25
139 | QTRP | ≤ 0.25
140 | ICHQ | ≤ 0.25
141 | YQLT | ≤ 0.25
142 | TSTK | ≤ 0.25
143 | GLDL | ≤ 0.25
144 | NVQL | ≤ 0.25

Row | Variant | enrichment ratio
145 | VVMY | ≤ 0.25
146 | WTFP | ≤ 0.25
147 | RLRE | ≤ 0.25
148 | HRIN | ≤ 0.25
149 | FWMH | ≤ 0.25
150 | HGGA | ≤ 0.25
151 | KPCH | ≤ 0.25
152 | NGFN | ≤ 0.25
153 | DVRK | ≤ 0.25
154 | NIWS | ≤ 0.25
155 | LAWM | ≤ 0.25
156 | NPMY | ≤ 0.25
157 | PMAL | ≤ 0.25
158 | QQVQ | ≤ 0.25
159 | PLCP | ≤ 0.25
160 | RRVL | ≤ 0.25
161 | MFNI | ≤ 0.25
162 | GFLK | ≤ 0.25
163 | ELVE | ≤ 0.25
164 | HITT | ≤ 0.25
165 | HRGS | 1.37
166 | FVTE | ≤ 0.25
167 | TGYW | ≤ 0.25
168 | LHNM | ≤ 0.25

Row | Variant | enrichment ratio
169 | TDKL | ≤ 0.25
170 | SSSI | 15.2
171 | YWQH | ≤ 0.25
172 | WLGF | ≤ 0.25
173 | MHGQ | ≤ 0.25
174 | PKID | ≤ 0.25
175 | ISGH | ≤ 0.25
176 | DHIK | ≤ 0.25
177 | GYNH | ≤ 0.25
178 | VMGW | ≤ 0.25
179 | TIHD | ≤ 0.25
180 | LGMC | ≤ 0.25
181 | SFIL | ≤ 0.25
182 | SSWY | 0.557
183 | NQMM | ≤ 0.25
184 | WKQH | ≤ 0.25
185 | YHNI | ≤ 0.25
186 | RQKY | ≤ 0.25
187 | MHLD | ≤ 0.25
188 | ENLC | ≤ 0.25
189 | LWIF | ≤ 0.25
190 | LEHC | ≤ 0.25
191 | NDLT | ≤ 0.25
192 | WEVF | ≤ 0.25

Row | Variant | enrichment ratio
193 | KTKF | ≤ 0.25
194 | MTAP | ≤ 0.25
195 | GNNN | ≤ 0.25
196 | NCVS | ≤ 0.25
197 | DWMW | ≤ 0.25
198 | HMIG | ≤ 0.25
199 | LGQS | ≤ 0.25
200 | GYTN | ≤ 0.25
201 | HNSV | ≤ 0.25
202 | AQQP | ≤ 0.25
203 | EMFE | ≤ 0.25
204 | WTYM | ≤ 0.25
205 | KCMP | ≤ 0.25
206 | LTFG | 0.536
207 | KHHG | ≤ 0.25
208 | HASY | ≤ 0.25
209 | FKEN | ≤ 0.25
210 | HYSH | ≤ 0.25
211 | DPAW | ≤ 0.25
212 | LWRE | ≤ 0.25
213 | MIWT | ≤ 0.25
214 | IDQY | ≤ 0.25
215 | VCDC | ≤ 0.25
216 | RSRI | ≤ 0.25

Row | Variant | enrichment ratio
217 | KKTQ | ≤ 0.25
218 | NIDV | ≤ 0.25
219 | RDVQ | 1.68
220 | TAET | ≤ 0.25
221 | GSPW | ≤ 0.25
222 | QSRG | ≤ 0.25
223 | ATGV | 5.3
224 | IRMD | ≤ 0.25
225 | KQKL | ≤ 0.25
226 | VFDD | ≤ 0.25
227 | TSWN | 3.19
228 | KYIE | ≤ 0.25
229 | IYRS | ≤ 0.25
230 | EVNG | ≤ 0.25
231 | QIMS | ≤ 0.25
232 | FRIE | ≤ 0.25
233 | AKWN | ≤ 0.25
234 | KLGL | ≤ 0.25
235 | FFKE | ≤ 0.25
236 | YDYN | ≤ 0.25
237 | FHYV | ≤ 0.25
238 | IVYI | ≤ 0.25
239 | NECK | ≤ 0.25
240 | HQMT | ≤ 0.25

Row | Variant | enrichment ratio
241 | DSGS | ≤ 0.25
242 | WFTS | ≤ 0.25
243 | FHKV | ≤ 0.25
244 | DMNE | ≤ 0.25
245 | AIPT | ≤ 0.25
246 | WHIR | ≤ 0.25
247 | YAYI | ≤ 0.25
248 | SDCA | 0.286
249 | YKKH | ≤ 0.25
250 | MVPY | ≤ 0.25
251 | LCRL | ≤ 0.25
252 | IEFQ | 1.29
253 | TAHP | ≤ 0.25
254 | FPKA | ≤ 0.25
255 | EAAL | ≤ 0.25
256 | RHII | ≤ 0.25
257 | VSSG | ≤ 0.25
258 | GGPW | ≤ 0.25
259 | PYIL | ≤ 0.25
260 | DAPR | ≤ 0.25
261 | QYNT | ≤ 0.25
262 | PIVA | ≤ 0.25
263 | NLCF | ≤ 0.25
264 | ETYG | ≤ 0.25

Row | Variant | enrichment ratio
265 | PIMK | ≤ 0.25
266 | ALNY | ≤ 0.25
267 | GTWM | ≤ 0.25
268 | QHSE | ≤ 0.25
269 | NTKT | ≤ 0.25
270 | DLHQ | ≤ 0.25
271 | WAPY | ≤ 0.25
272 | YPWP | ≤ 0.25
273 | EIDR | ≤ 0.25
274 | PCTL | ≤ 0.25
275 | FHMV | ≤ 0.25
276 | KNGC | ≤ 0.25
277 | TLGC | 7.74
278 | EYHS | ≤ 0.25
279 | KLYS | ≤ 0.25
280 | YWIQ | ≤ 0.25
281 | VKQM | ≤ 0.25
282 | ECAN | ≤ 0.25
283 | ANMG | ≤ 0.25
284 | FQAT | 1.07
285 | QKLY | ≤ 0.25
286 | SGNA | ≤ 0.25
287 | DQTV | ≤ 0.25
288 | KYTQ | ≤ 0.25

Row | Variant | enrichment ratio
289 | ELHQ | ≤ 0.25
290 | FQHW | ≤ 0.25
291 | HGYI | ≤ 0.25
292 | FHCA | ≤ 0.25
293 | IRIV | ≤ 0.25
294 | YVHK | ≤ 0.25
295 | FYKC | ≤ 0.25
296 | RQVR | ≤ 0.25
297 | ESNA | ≤ 0.25
298 | IYAE | ≤ 0.25
299 | QPVL | ≤ 0.25
300 | IAWE | ≤ 0.25
301 | KKKF | ≤ 0.25
302 | EYIG | ≤ 0.25
303 | TFWY | ≤ 0.25
304 | PCPH | ≤ 0.25
305 | SYND | ≤ 0.25
306 | ACAP | 10.2
